B1: NB149-31 VHH-hFc (Fc fusion)
chain: EVQVVESGGGLVQPGGSLRLSCAASGITFSGNYGGWFRQAPGEQRELVASMSSALGTKYADPVKGRFTISTDTAKNTVDLQMNSLGPEDTAVYYCYARVRLSRGGWGSEYWGQGTQVTVSS[human IgG1 Fc with changes not written out]
B2: NB148-27 VHH-hFc (Fc fusion)
chain: EVQVVESGGGLVQAGASLRLSCASSGRTISPIAMAWFRQAPGKERELVAGLTWTGRTYYSDSVKGRFTISRDNAKNTVYLQMDSLKFEDTAVYFCAAGDNPDRRGSSWSSSSVYEYWGQGTQVTVSS[human IgG1 Fc with changes not written out]
B3: NB148-46 VHH-hFc (Fc fusion)
chain: EVQLVESGGGLVQAGGSLRLSCAASGSTFSSYPMGWYRQAPGKQRELVAAISSGGSTNYADSVKGRFTISRDNAKNTVYLQMNSLKPEDTAVYYCNTRSPRVPNDSWGQGTQVTVSS[human IgG1 Fc with changes not written out]

target: T1, human MSLN-FL-his protein (human, UniProt Q13421 296-580); assay: SPR, antibody captured on Protein A chip, MSLN-FL-his injected, 1:1 model
T1 construct: Made in HEK293E cells, purified on nickel column; also called hMSLN-FL-his; not shown: histidine tag

Row | Kd [nM] | koff [s⁻¹] | kon [M⁻¹ s⁻¹] | Binder
1 | 0.861 | 0.00112 | 1.3e+06 | B1
2 | 9.39 | 0.00136 | 144000 | B2
3 | 3.33 | 0.003 | 902000 | B3

target: T2, human MSLN full-length protein, recombinant, on CHO-K1 or HEK293T cells (human, UniProt Q13421 296-598); assay: competitive FACS on CHO-K1-human MSLN-2C8 cells vs Biotin-Tab142; competitor at 0.032 nM
T2 construct: The background says that the precursor is cleaved by furin to the mature membrane form; also called hMSLN; CHO-K1-hMSLN-2C8

Row | MFI of Biotin-Tab142 | Binder
4 | 42700 | B1
5 | 41700 | B2
6 | 43500 | B3

target: T1, human MSLN-FL-his protein; assay: competitive ELISA on MSLN-FL-His; other antibody: Tab107 (C) (1.m4)
T1 sequence (Q13421 other isoform, or with tags, fused parts or gaps): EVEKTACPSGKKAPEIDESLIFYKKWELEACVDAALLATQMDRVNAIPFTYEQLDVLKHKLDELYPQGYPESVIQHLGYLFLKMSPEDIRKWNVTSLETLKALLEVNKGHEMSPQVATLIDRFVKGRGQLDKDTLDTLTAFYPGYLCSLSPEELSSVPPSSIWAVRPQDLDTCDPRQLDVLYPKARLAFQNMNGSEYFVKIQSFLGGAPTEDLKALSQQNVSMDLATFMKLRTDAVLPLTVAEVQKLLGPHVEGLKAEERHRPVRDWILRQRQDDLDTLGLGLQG

Row | inhibition rate [%] | Binder
7 | 70 | B1
8 | 28 | B2
9 | -6 | B3

target: T1, human MSLN-FL-his protein; assay: competitive ELISA on MSLN-FL-His; other antibody: NB149-34 (3.m8)

Row | inhibition rate [%] | Binder
10 | 90 | B1
11 | 88 | B2
12 | 85 | B3

target: T1, human MSLN-FL-his protein; assay: competitive ELISA on MSLN-FL-His; other antibody: NB148-46 (3.m5)

Row | inhibition rate [%] | Binder
13 | 87 | B1
14 | 78 | B2
15 | 87 | B3

target: T2, human MSLN full-length protein, …; assay: FACS, HEK293T-hMSLN-B8 cells, antibody 0.2 nM

Row | MFI | Binder
16 | 1210 | B1
17 | 1670 | B2
18 | 1280 | B3

target: T1, human MSLN-FL-his protein; assay: competitive ELISA on MSLN-FL-His; other antibody: Tab108 (R3) (3.m14)

Row | inhibition rate [%] | Binder
19 | 27 | B1
20 | 40 | B2
21 | -8 | B3

target: T3, human MSLN protein endogenously expressed on tumor cells (Hela, OVCAR3) (human, UniProt Q13421 296-598); assay: FACS, OVCAR3 cells, antibody 20 nM
T3 construct: whole, on cells

Row | MFI | Binder
22 | 11400 | B1
23 | 5400 | B2
24 | 11100 | B3

target: T2, human MSLN full-length protein, …; assay: competitive FACS on CHO-K1-human MSLN-2C8 cells vs Biotin-Tab142; competitor at 0.0064 nM

Row | MFI of Biotin-Tab142 | Binder
25 | 43500 | B1
26 | 41700 | B2
27 | 43800 | B3

target: T3, human MSLN protein endogenously …; assay: FACS, OVCAR3 cells, antibody 0.2 nM

Row | MFI | Binder
28 | 1200 | B1
29 | 361 | B2
30 | 1450 | B3

target: T3, human MSLN protein endogenously …; assay: FACS, Hela cells

Row | EC50 [nM] | Max MFI | Binder
31 | 0.16 | 313 | B1
32 | 2.59 | 352 | B2
33 | 0.14 | 332 | B3

target: T4, chimeric human MSLN-R3 / chicken MSLN-R1-2 protein on HEK293T cells (clone A5) (chicken; human); assay: FACS, HEK293T-hR3/chickR1-2-A5 cells, antibody 0.2 nM
T4 construct: range 327-514; Human R1-R2 replaced by chicken R1-R2; also called HEK293T-chickR1-2/hR3-A5; HEK293T-hR3/chickR1-2-A5

Row | MFI | Binder
34 | 74 | B1
35 | 73 | B2
36 | 72 | B3

target: T4, chimeric human MSLN-R3 / chicken …; assay: FACS, HEK293T-hR3/chickR1-2-A5 cells, antibody 20 nM

Row | MFI | Binder
37 | 74 | B1
38 | 93 | B2
39 | 73 | B3

target: T2, human MSLN full-length protein, …; assay: competitive FACS on CHO-K1-human MSLN-2C8 cells vs Biotin-Tab142; competitor at 0.16 nM

Row | MFI of Biotin-Tab142 | Binder
40 | 41000 | B1
41 | 40500 | B2
42 | 41000 | B3

target: T3, human MSLN protein endogenously …; assay: FACS, OVCAR3 cells, antibody 2 nM

Row | MFI | Binder
43 | 6090 | B1
44 | 1600 | B2
45 | 7150 | B3

target: T2, human MSLN full-length protein, …; assay: competitive FACS on CHO-K1-human MSLN-2C8 cells vs Biotin-Tab142; competitor at 4 nM

Row | MFI of Biotin-Tab142 | Binder
46 | 33600 | B1
47 | 40400 | B2
48 | 33500 | B3

target: T2, human MSLN full-length protein, …; assay: FACS, HEK293T-hMSLN-B8 cells, antibody 20 nM

Row | MFI | Binder
49 | 24800 | B1
50 | 24800 | B2
51 | 25700 | B3

target: T1, human MSLN-FL-his protein; assay: competitive ELISA on MSLN-FL-His; other antibody: NB148-25 (3.m2)

Row | inhibition rate [%] | Binder
52 | 62 | B1
53 | -35 | B2
54 | -6 | B3

target: T2, human MSLN full-length protein, …; assay: competitive FACS on CHO-K1-human MSLN-2C8 cells vs Biotin-Tab142; competitor at 20 nM

Row | MFI of Biotin-Tab142 | Binder
55 | 25600 | B1
56 | 33100 | B2
57 | 24900 | B3

target: T2, human MSLN full-length protein, …; assay: competitive FACS on CHO-K1-human MSLN-2C8 cells vs Biotin-Tab142; competitor at 0.8 nM

Row | MFI of Biotin-Tab142 | Binder
58 | 39800 | B1
59 | 41700 | B2
60 | 39300 | B3

target: T1, human MSLN-FL-his protein; assay: competitive ELISA on MSLN-FL-His; other antibody: NB149-31 (3.m7)

Row | inhibition rate [%] | Binder
61 | 88 | B1
62 | 86 | B2
63 | 89 | B3

target: T2, human MSLN full-length protein, …; assay: competitive FACS on CHO-K1-human MSLN-2C8 cells vs Biotin-Tab142; competitor at 100 nM

Row | MFI of Biotin-Tab142 | Binder
64 | 17600 | B1
65 | 26000 | B2
66 | 19500 | B3

From patent publication US20240124563A1 (NANJING ZAIMING PHARMACEUTICAL, published 2024)
